The supplement of paper PMC11417369
The list shows a part of the results.

System: PfHDP1 homeodomain (GST-tagged)
Assay: gcPBM binding intensity (ln(normalized median fluorescence intensity)); higher = stronger DNA binding
Procedure, shortened: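 The highest Masliner-normalised natural-log median intensity across replicate spots of either probe orientation is reported as binding intensity. GST-tagged P. falciparum DNA-binding domains expressed in E. coli were applied for 1 h to an Agilent 4 × 180k array of primer-extended double-stranded 36-bp intergenic genomic probes plus negative controls, and bound protein was detected with Alexa488 anti-GST antibody and scanned at 488 nm.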

Row | Sequence | gcPBM binding intensity (ln)
1 | TATGTAAAAACAGGCACACATATATCATATATATAT [CACACA_site619] | 8.2
2 | TTATTTTTTAAAAGTAGTACAAATTTTTATAGAAAA [XGTACX_site7407] | 6.27
3 | CAATATTTGTTATGGGTGCAAACCGCATATATATAA [GTGCAC_site9543] | 9.01
4 | ATTCCTTGGTTGTATAGTACTTTGGTTAAACATAAA [XGTACX_site6967] | 6.88
5 | TAAAAAAGAAAATATATACACACCAAAAAAAAAAAA [CACACA_site3146] | 6.28
6 | ATTAAATCCGCACGCACACACACATATTAATAAAAA [CACACA_site3992] | 7.74
7 | AATATTAAAGAATAATGTACAAAATAAAAGCAAAGA [XGTACX_site3550] | 7.55
8 | ACATGTCTTAAAAGACGTACATATAAAAGAACCCTA [XGTACX_site8940] | 6.88
9 | AAACAAAAAAATTGAAATAAAATGAAGTAAATGAAC [TGCATGCA_negctrl_site129] | 7.14
10 | TTAAATATATGTAATACGCACACTTAATATTTTGAG [CACACA_site4170] | 7.01
11 | AAAAAAAAAAAAAAAACATGCAATAAAGTGTGCGTA [TGCATGCA_site982] | 7.36
12 | TTTTGGTGGGTTACAAGTACTCAAAATGGATTGTTA [XGTACX_site1951] | 6.62
13 | TTTCGAAAAACAACAAGAAAAAAAAAAAAAAAAAAA [XGTACX_negctrl_site449] | 6.24
14 | TCACATACATTACTTACACACCATATTGATATATAC [CACACA_site6353] | 7.01
15 | TATCTCATAGTATACACACACACACGCGCACATATA [CACACA_site6917] | 7.63
16 | TGTATATATTATATTTGTACATATAAAACTATATGT [XGTACX_site4782] | 6.35
17 | ATTAACATTTTCGTATGTACATATATAATATATGTT [XGTACX_site7184] | 6.86
18 | TTTCCAAATACAACTACACACAAACAAAAATTATAT [CACACA_site4641] | 7.02
19 | ATGTTTATTTATTTATGTACTTATATATTTATATAT [XGTACX_site7924] | 6.78
20 | AATAAAAATAAAAATTGTACACTTTTTTAATATTTA [XGTACX_site892] | 6.18
21 | CAAAATATTTATATCACACATATAAATAAAAATAAA [CACACA_site6028] | 6.47
22 | TATTAATTTCACCTTTCACATATGGAAAAAAAAAAA [CACACA_negctrl_site1243] | 6.64
23 | AATGTGCACACGCGTACACACAAAAAAAGAAAAAAA [CACACA_site7031] | 10.2
24 | TATTATTTGAGTAGTTGTACTCATTAATATATAAAA [XGTACX_site3468] | 5.98
